Results: the supplement of paper PMC4967469
By IC50 is meant the dose at which the fit gives 50% viability; a fit beyond the top or the lowest dose is shown as a bound at that dose. The AUC spans the tested range (256-fold, ending at the top dose) of the same fit; the more sensitive the line, the further below 1. For some of these results: Any top dose called inferred comes from the curve model; the source does not state it.

Tests used:
Experiment in all cases: Viability of human cancer cell lines after 72 h of drug (GDSC screen)
AZD7762 = compound: NC(=O)Nc1cc(-c2cccc(F)c2)sc1C(=O)N[C@H]1CCCNC1 [AZD7762]; conditions: top dose 2 µM
Procedure: (§1)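 Human cancer cell lines in 384-well plates, medium with 10% serum, drug for 72 h over a 256-fold dose range (nine 2-fold or five 4-fold steps up to the top dose). Adherent lines were fixed and stained with the nucleic acid dye Syto60, suspension lines read with resazurin; signal relative to control wells, capped at 0 and 100%. One two-parameter sigmoid per drug and line, fitted in a mixed model over all curves with the slope shared within a line.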

XAV 939 = compound: Oc1nc(-c2ccc(C(F)(F)F)cc2)nc2c1CSCC2 [XAV 939]; conditions: top dose 5 µM; top dose inferred
Procedure: as §1

YK 4-279 = compound: COc1ccc(C(=O)CC2(O)C(=O)Nc3c(Cl)ccc(Cl)c32)cc1 [YK 4-279]; conditions: top dose 10 µM
Procedure: as §1

BMS-345541 = compound: Cc1ccc2nc(NCCN)c3ncc(C)n3c2c1 [BMS-345541]; conditions: top dose 16 µM
Procedure: as §1

NPK76-II-72-1 = compound: COc1cc(C(=O)NC2CCN(C)CC2)ccc1Nc1ncc2c(n1)N(C1CCCC1)C(C)CC(=O)N2C [NPK76-II-72-1]; conditions: top dose 10.24 µM; top dose inferred
Procedure: as §1

Bexarotene = compound: C=C(c1ccc(C(=O)O)cc1)c1cc2c(cc1C)C(C)(C)CCC2(C)C [Bexarotene]; conditions: top dose 8 µM
Procedure: as §1

GSK-650394 = compound: O=C(O)c1ccc(-c2c[nH]c3ncc(-c4ccccc4)cc23)cc1C1CCCC1 [GSK-650394]; conditions: top dose 16 µM; top dose inferred
Procedure: as §1

Cell Line	AUC (AZD7762)	IC50 (AZD7762) [µM]	AUC (XAV 939)	IC50 (XAV 939) [µM]	AUC (YK 4-279)	IC50 (YK 4-279) [µM]	AUC (BMS-345541)	IC50 (BMS-345541) [µM]	AUC (NPK76-II-72-1)	IC50 (NPK76-II-72-1) [µM]	AUC (Bexarotene)	IC50 (Bexarotene) [µM]	AUC (GSK-650394)	IC50 (GSK-650394) [µM]
NCI-H146 (small cell lung carcinoma, suspension)	0.94	> 2	0.991	> 5	0.984	> 10	–	–	–	–	–	–	–	–
NCI-H508 (large intestine, semi-adherent)	0.892	> 2	0.971	> 5	0.957	> 10	–	–	–	–	–	–	–	–
NCI-H835 (lung carcinoid, suspension)	0.93	> 2	0.968	> 5	0.926	> 10	–	–	–	–	–	–	–	–
NCI-H929 (myeloma, suspension)	0.737	0.522	0.979	> 5	0.899	9.43	–	–	–	–	–	–	–	–
NCI-H1105 (small cell lung carcinoma, suspension)	0.938	> 2	0.988	> 5	0.877	7.05	–	–	–	–	–	–	–	–
NCI-H1341 (small cell lung carcinoma, suspension)	0.632	0.273	0.982	> 5	0.777	3.43	–	–	–	–	–	–	–	–
OACM5-1 (oesophagus, semi-adherent)	0.952	> 2	0.983	> 5	0.961	> 10	0.737	5.25	0.52	0.733	–	–	–	–
OACp4C (oesophagus, adherent)	0.5	0.125	0.941	> 5	0.828	7.93	0.83	12.9	0.564	0.995	–	–	–	–
OC-314 (ovary, adherent)	0.594	0.217	0.983	> 5	0.622	1.29	0.893	14.3	0.648	1.54	–	–	–	–
OV-17R (ovary, adherent)	0.649	0.382	0.848	> 5	0.813	8.38	0.893	> 16	0.891	> 10.2	–	–	–	–
OV-56 (ovary, adherent)	0.698	0.438	0.984	> 5	0.772	3.7	0.884	> 16	0.98	> 10.2	–	–	–	–
OVCA420 (ovary, adherent)	0.773	1.05	0.9	> 5	0.91	> 10	0.977	> 16	0.945	> 10.2	–	–	–	–
OVCA433 (ovary, adherent)	0.636	0.31	0.756	1.89	0.447	0.442	0.937	> 16	0.968	> 10.2	–	–	–	–
OVK-18 (ovary, adherent)	0.588	0.224	0.979	> 5	0.771	4.25	0.877	> 16	0.968	> 10.2	–	–	–	–
PWR-1E (prostate, adherent)	0.494	0.121	0.975	> 5	0.752	3.3	–	–	–	–	–	–	–	–
RCH-ACV (B-cell leukaemia, suspension)	0.381	0.0627	0.99	> 5	0.686	1.86	–	–	–	–	–	–	–	–
RH-18 (rhabdomyosarcoma, adherent)	0.844	1.76	0.953	> 5	0.954	> 10	0.894	> 16	–	–	–	–	–	–
SK-GT-2 (stomach, adherent)	0.68	0.41	0.934	> 5	0.695	2.28	–	–	–	–	–	–	–	–
SK-LU-1 (lung adenocarcinoma, adherent)	–	–	0.963	> 5	0.711	2.94	0.919	> 16	0.933	> 10.2	0.857	> 8	0.658	3.11
SK-MEL-2 (melanoma, adherent)	–	–	0.964	> 5	0.735	3.01	0.888	> 16	0.955	> 10.2	0.951	> 8	0.975	> 16
SK-MEL-31 (melanoma, adherent)	0.679	0.457	0.958	> 5	0.926	> 10	–	–	–	–	–	–	–	–
SU-DHL-8 (B-cell lymphoma, suspension)	–	–	0.986	> 5	0.978	> 10	0.726	4.16	0.529	0.764	0.871	6.69	0.903	> 16
SUP-B8 (B-cell leukaemia, suspension)	0.671	0.373	0.968	> 5	0.893	> 10	–	–	–	–	–	–	–	–
T-24 (bladder, adherent)	–	–	0.977	> 5	0.587	1.07	0.907	> 16	0.929	> 10.2	0.968	> 8	0.981	> 16
TC-YIK (cervix, suspension)	0.643	0.292	0.924	> 5	0.661	1.63	–	–	–	–	–	–	–	–
U-266 (myeloma, semi-adherent)	0.757	0.922	0.957	> 5	0.888	> 10	–	–	–	–	–	–	–	–
VMRC-LCD (lung adenocarcinoma, adherent)	0.717	0.455	0.98	> 5	0.715	2.24	–	–	–	–	–	–	–	–
